Laboratory results as given in paper PMC4336329 (PLoS ONE, 2015).
The campaign covered roughly 310,000 compounds. About 14,000 (4.5%) showed an effect of 50% or more. The effect is printed as a negative number. The list shows a part of the results.

Biological target: human ether-à-go-go-related gene (hERG) potassium channel (human, UniProt Q12809)
Experiment: primary screen, population patch clamp on CHO cells stably expressing hERG
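Also: peak tail current of the secondary pulse compared with the same well before compound.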

Sequence of human ether-à-go-go-related gene (hERG) potassium channel (Q12809 whole entry, looked up): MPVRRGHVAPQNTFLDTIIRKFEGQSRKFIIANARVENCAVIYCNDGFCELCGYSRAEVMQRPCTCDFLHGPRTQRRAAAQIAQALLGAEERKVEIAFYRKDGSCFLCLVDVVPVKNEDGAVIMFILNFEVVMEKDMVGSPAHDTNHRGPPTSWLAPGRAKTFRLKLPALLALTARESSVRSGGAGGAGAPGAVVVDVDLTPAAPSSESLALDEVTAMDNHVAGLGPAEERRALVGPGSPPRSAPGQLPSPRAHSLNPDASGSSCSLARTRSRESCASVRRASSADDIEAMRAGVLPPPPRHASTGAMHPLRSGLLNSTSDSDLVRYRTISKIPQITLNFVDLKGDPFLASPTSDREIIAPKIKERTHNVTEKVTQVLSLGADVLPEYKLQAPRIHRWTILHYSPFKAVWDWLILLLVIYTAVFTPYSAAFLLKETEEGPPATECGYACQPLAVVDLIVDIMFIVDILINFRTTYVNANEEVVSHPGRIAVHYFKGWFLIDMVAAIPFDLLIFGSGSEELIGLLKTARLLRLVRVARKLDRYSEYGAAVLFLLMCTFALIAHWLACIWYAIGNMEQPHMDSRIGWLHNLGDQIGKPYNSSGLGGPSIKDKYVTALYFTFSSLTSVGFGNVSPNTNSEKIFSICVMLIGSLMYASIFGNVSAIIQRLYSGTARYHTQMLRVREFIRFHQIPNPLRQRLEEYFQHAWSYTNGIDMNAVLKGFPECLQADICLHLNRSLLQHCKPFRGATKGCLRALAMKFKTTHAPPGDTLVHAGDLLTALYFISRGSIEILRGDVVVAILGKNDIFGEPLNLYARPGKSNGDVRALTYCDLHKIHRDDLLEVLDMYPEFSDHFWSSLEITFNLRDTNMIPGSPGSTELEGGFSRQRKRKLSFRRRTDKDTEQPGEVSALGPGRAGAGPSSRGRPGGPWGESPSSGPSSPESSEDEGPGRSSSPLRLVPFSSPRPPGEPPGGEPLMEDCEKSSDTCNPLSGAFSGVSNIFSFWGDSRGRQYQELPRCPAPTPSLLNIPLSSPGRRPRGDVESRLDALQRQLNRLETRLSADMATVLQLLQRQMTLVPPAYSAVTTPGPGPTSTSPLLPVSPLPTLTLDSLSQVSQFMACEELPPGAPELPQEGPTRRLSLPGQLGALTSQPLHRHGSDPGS

Row | SMILES | hERG current change (%, negative = inhibition) at 10uM [%]
1 | CC1CN(CCCOc2ccccc2-c2ccccc2)CC(C)O1.O=C(O)C(=O)O (stereo not shown) | -47.2
2 | CCc1nc(NCCC(C)C)c2nnn(Cc3ccccc3)c2n1 | 23.2
3 | CCN(CC(=O)Nc1c(F)cccc1F)C(=O)CSc1nc2ccccc2o1 | -1.64
4 | Cc1ccc(S(=O)(=O)NCCC(=O)NCC(c2cccs2)N2CCOCC2)cc1 (stereo not shown) | -4.62
5 | CC(=O)Cc1nsc(NC(=O)c2ccc(-c3ccc(Cl)c(C(F)(F)F)c3)o2)n1 | 15.3
6 | CSc1nnc(C)c(=O)n1COC(=O)/C=C/c1ccccc1 | -10.5
7 | CN(Cc1ccon1)C(=O)CC1C(=O)NCCN1Cc1ccc(F)c(F)c1 (stereo not shown) | -4.23
8 | CC(=O)Nc1ccc2c(c1)CCCN2C(=O)c1ccccc1 | 11.1
9 | O=C(Nc1ccc([N+](=O)[O-])cc1)C1(c2ccccc2)CCOCC1 | -69.1
10 | O=C(NC(=S)N(Cc1ccccc1)Cc1ccccc1)C1CCCCC1 | 12.6
11 | FC(F)(F)c1cccc(N2CCc3cn[nH]c32)c1 | -11.7
12 | Cc1ccc(S(=O)(=O)N2CCN(CC(=O)N/N=C/c3ccc(C)o3)CC2)cc1 | -38.9
13 | CCCC[n+]1ccn(-c2nc3ccccc3nc2[N-]S(=O)(=O)c2ccc(Cl)cc2)c1 | -19.8
14 | Cc1cc(NC(=O)COC(=O)c2cccc(S(=O)(=O)N3CCOCC3)c2)no1 | 11.4
15 | COc1ccc(NC(=O)CN2CCN(S(=O)(=O)c3ccc(Br)cc3)CC2)c(OC)c1 | 19.8
16 | CC(C)CC(=O)Nc1ccc2c(c1)nc(CCN1CCCCC1)n2C | -9.9
17 | CCN1CCN(C(c2cccs2)C(C)NC(=O)c2ccccc2)CC1 (stereo not shown) | -1.79
18 | COc1ccc(CN2CCC(C(=O)N(C)CCc3ccc(OC)c(OC)c3)CC2)c(OC)c1.O=C(O)C(=O)O | -44.9
19 | CC1=C(C(=O)OC(C)C)C(C2CC=CCC2)NC(=O)N1 (stereo not shown) | 4.88
20 | Cc1ccc(NC(=O)CSc2nnc(-c3ccc(S(=O)(=O)N4CCCC4)cc3)o2)cc1C | -6.49
21 | Cc1nn(C2CCOC(C)(C)C2)c2c1C(c1ccc(OC(C)C)cc1)SCC(=O)N2 (stereo not shown) | -15.5
22 | CC1=C(C(=O)N(C)C)C(c2ccccc2OC(F)F)NC(=O)N1 (stereo not shown) | 3.49

Row | SMILES | hERG current change (%, negative = inhibition) at 10uM [%]
23 | CC(C)NC(=O)c1ccccc1NC(=O)CS(=O)(=O)Cc1ccccc1 | -4.72
24 | OCCC1CN(CC#Cc2ccccc2)CCN1C1CCCC1 (stereo not shown) | -46.2
25 | Cc1ccc(N2C(=O)C3C4C=CC(CC4)C3C2=O)cc1Br (stereo not shown) | 15.4
26 | CCC(C(=O)Nc1cc(C)nn1-c1nc(C)cc(C)n1)c1ccccc1 (stereo not shown) | -67.7
27 | COc1ccccc1NC(=S)N(c1ccccc1)C(C)C | 6.18
28 | COc1ccc(CCNC(=O)CCNC(=O)c2ccccc2Cl)cc1 | 21.9
29 | COc1ccc(C2=NN(C(=O)CCC(=O)O)C(c3cccs3)C2)cc1OC (stereo not shown) | 17.1
30 | OC(COc1cccc2ccccc12)CN1CCCC1 (stereo not shown) | -29.4
31 | CCOC(=O)C(CC)Sc1nnc2n1C(C)(C)Cc1ccccc1-2 (stereo not shown) | -10.8
32 | O=C(CN1CCCCC1)N1CCN(c2ccccc2)CC1 | -6.04
33 | COc1ccc(N/C(C)=C/C(=O)c2ccccc2)cc1 | -2.07
34 | O=C1/C(=C/c2ccco2)CCc2ccccc21 | -5.9
35 | COc1ccc2oc(C(=O)OCC(=O)N(C)c3c(N)n(Cc4ccccc4)c(=O)[nH]c3=O)c(C)c2c1 | 4.41
36 | COCCN(C(=O)c1ccc(N2CCCC2=O)cc1)c1c(N)n(Cc2ccccc2)c(=O)[nH]c1=O | 3.26
37 | CCCCOCCCNC(=O)N[C@H](C(=O)O)C(C)CC (stereo partly shown) | -5.23
38 | CCCN(C(=O)CSc1nnnn1C)c1c(N)n(Cc2ccccc2)c(=O)[nH]c1=O | 18.4
39 | CC1(C)CC2(CCO1)N1CC3(C)CN2CC(C)(C1)C3=O (stereo not shown) | -1.6
40 | Nn1c(SCc2ccccc2)nnc1-c1ccccn1 | 5.06
41 | C/C(=N\N1CCCCC1)c1ccccc1O | 18.6
42 | CC(/C=N/Nc1nc2ccccc2[nH]1)=C\c1ccccc1 | -41.8
43 | Cc1cccc(-c2nsc(SCC(=O)NCC3CCCO3)n2)c1 (stereo not shown) | 2.13
44 | COc1ccc(NC(=O)Cc2ccccc2)cn1 | -19.5

Row | SMILES | hERG current change (%, negative = inhibition) at 10uM [%]
45 | CC1=C(C(N)=O)C(c2cccnc2)n2nc(-c3cccc(Cl)c3)nc2N1 (stereo not shown) | 5.79
46 | C=CCc1ccccc1OCC(O)CN(C(C)C)C(C)C.Cl (stereo not shown) | -59.2
47 | O=C(CC(Nc1ccccc1)c1ccccc1)C1CC1 (stereo not shown) | 1.87
48 | COc1ccccc1NS(=O)(=O)c1cc(NC(=O)c2sc3cc(Cl)ccc3c2Cl)ccc1C | 22.6
49 | O=C(COC(=O)c1ccccn1)c1ccc(Br)cc1 | -9.52
50 | CCC(c1nnc(SCC(=O)NC2CCCCC2)n1Cc1ccccc1)N(C)C (stereo not shown) | -2.1
51 | Cc1nc(-c2cccc(S(=O)(=O)N3CC(C)OC(C)C3)c2)cs1 (stereo not shown) | -6.6
52 | CCOC(=O)NN1C(=O)c2ccccc2NC1c1ccc(OC)c(OC)c1 (stereo not shown) | 28.6
53 | CC(=O)Oc1ccc(C(=O)Nc2ccccc2C(=O)N2CCCCC2)cc1 | 8.94
54 | CC(C)(C)OC(=O)NCc1ccc(NC(=O)c2nc[nH]c2C(=O)N[C@@H](Cc2ccccc2)C(=O)OC(C)(C)C)cc1 | 4.48
55 | CCOC(=O)N1CCN(C(=O)CCCn2c(=S)[nH]c3ccccc3c2=O)CC1 | 0.159
56 | O=S(=O)(c1ccc(Br)s1)N1CCC2(CC1)OCCO2 | -0.779
57 | CCCCCCn1c(=O)c(C(=O)Nc2cnccn2)c(O)c2ccccc21 | 1.2
58 | Cc1ccc(-c2csc(N=C(N)N)n2)c(C)c1 | -4.83
59 | CN(CCNC(=O)c1cccc(N2CCCC2=O)c1)Cc1ccccc1 | -1.38
60 | CCOc1c2ccc(C(=O)NCCc3ccc(C)cc3)cc2nn1CC | -7.45
61 | Cc1cc(NC(=O)CN(C)S(=O)(=O)c2ccc(-c3ccc(=O)[nH]n3)s2)ccc1Br | 7.95
62 | CC(C)CCN1CC(C(=O)N2CCN(c3ccc(F)cc3)CC2)CC1=O (stereo not shown) | -25.4
63 | COCCNC(=O)c1cc(Sc2nnc(C)s2)nc2ccccc12 | -18.2
64 | NC1=NS(=O)(=O)NC1c1ccc(F)cc1 (stereo not shown) | 15
65 | O=C1NC(=Nc2ccc3ccccc3c2)S/C1=C/c1ccco1 | 11.8
66 | CC1(C)CC(CC(=O)O)(c2ccc(Cl)cc2)CCO1 (stereo not shown) | -3.8

Row | SMILES | hERG current change (%, negative = inhibition) at 10uM [%]
67 | CC(=O)NC(CC(=O)Nc1nccs1)c1ccccc1.O=C(O)C(=O)O (stereo not shown) | 1.49
68 | Cn1cnc([N+](=O)[O-])c1Oc1cccc(O)c1 | 8.43
69 | CCOC(=O)C(CC)n1cnc2sc3c(c2c1=O)CCC3 (stereo not shown) | 3.75
70 | COc1ccc(NCCc2ccccn2)cc1.Cl | 12.4
71 | COc1ccc(C(=O)Nc2cccc(S(C)(=O)=O)c2)cc1OC | 6.89
72 | Cc1cc(C)cc(C(=O)N2CCC(CCC(=O)NC3CC3)CC2)c1 | -2.09
73 | COc1ccc(NC2CC(=O)N(c3cc([N+](=O)[O-])ccc3C)C2=O)cc1 (stereo not shown) | -19.9
74 | CCO[C@H]1OC(C(=O)N2CCN(Cc3ccccc3)CC2)=C[C@@H](c2coc3ccccc3c2=O)[C@@H]1CCCO | -27
75 | COc1ccc(OC)c(S(=O)(=O)N2c3ccccc3CC2C)c1 (stereo not shown) | -0.963
76 | C/C(=N\NC(=O)c1ccn(C)n1)c1ccc(NC(=O)c2cccc(F)c2)cc1 | 8.11
77 | CCOC(=O)c1nnn(-c2nonc2N)c1COc1ccccc1 | -37.7
78 | COc1ccc(CN(Cc2cccn2C)S(=O)(=O)c2cccc(C(F)(F)F)c2)cc1 | 3.63
79 | Cc1cc(OCC(=O)OC(C)(C)C)c2c3c(c(=O)oc2c1)CCC3 | 5.64
80 | COc1cc(O)ccc1/C=N/NC(=O)c1ccc([N+](=O)[O-])cc1 | 5.84
81 | CCOC(=O)N1CCN(S(=O)(=O)c2ccc3c(c2)oc(=O)n3C)CC1 | -0.295
82 | COc1ccc(NC(C)=O)cc1NC(C)C(=O)Nc1cc(C(F)(F)F)ccc1N1CCOCC1 (stereo not shown) | -60.1
83 | Cc1ccc(S(=O)(=O)N(C)CC(=O)N2CCN(C(=O)c3ccco3)CC2)cc1.Cl | -49.8
84 | COC(=O)CCCC1=CC2=CC(=O)C(C)(OC(=O)C3CCCC3)C(=O)C2=CO1 (stereo not shown) | 8.82
85 | O=C(CN1C(=O)/C(=C/c2ccccc2F)Sc2ccccc21)N1CCN(c2ccccn2)CC1 | 13.3
86 | O=S(=O)(c1ccccc1Cl)N1CCCC1c1nc(-c2ccc(Cl)cc2)no1 (stereo not shown) | 19.9
87 | O=C(CN1C(=O)NC2(CCCCCCC2)C1=O)NCc1cccs1 | 7.8
88 | Cc1ccc(N(C(=O)NC2CCCCC2)C2=NCCCCC2)cc1 | 18.2
